From PubChem BioAssay AID1508623 (National Center for Advancing Translational Sciences (NCATS), 2021)
In all, about 48,000 compounds went through this assay and about 450 (0.94%) were called active. Another 19% or so got no clear call; they are omitted. The call rests on the fitted dose curve; in most records, active means well fitted inhibition curve with a large enough effect; inconclusive means small, poorly fitted or top-dose-only effect; inactive means no such curve, though single readings can be large or run the other way. The list shows a part of the results.

experiment: Primary qHTS for Identification of Small Molecule Inhibitors of Huntingtin Promoter Activity; settings: HEK293 HTT promoter firefly luciferase reporter (activity 0% = vehicle and -100% = no light), 24 h; series mostly up to 57.5 µM; activity change, negative = inhibition: at the top concentration; further: nearly all actives have a fitted effect of over 50% in size
Method in brief: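 HEK293 cells carrying firefly luciferase reporters were seeded at 2,500 per well in Opti-MEM and cultured for 24 h. They were then treated with compounds at up to 57.5 uM final for 24 h at 37 degrees C before Dual-Glo luminescence readout.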

Activity change, negative = inhibition, inactive:
Cc1ccc(-c2cc(C(F)(F)F)n3ncc(-c4ccccc4)c3n2)cc1 -4.01%
O=C(Nc1cccc(F)c1)c1oc2ccccc2c1NC(=O)C12CC3CC(CC(C3)C1)C2 -12.9%
O=S(=O)(c1ccccc1)c1nnn2c1nc(NCc1ccccc1)c1cc(Cl)ccc12 -11.4%
CC(C)c1ccc(NC(=O)CCS(=O)(=O)c2ccc3c(c2)CC(=O)N3C)cc1 -1.98%
Cc1nc2nc(C)c(CCC(=O)NCc3ccccc3)c(C)n2n1 -11.6%
COc1cccc(Cc2nc3ccccc3nc2SCC(=O)Nc2cc(OC)ccc2OC)c1 -17%
CCOc1ccccc1CNCCSc1nnnn1C -7.99%
CCOc1cc(-c2ccc(OC(=O)c3ccccc3)c(OC)c2)cc(=O)c2c(C)oc(C)c12 -1.87%
Cc1ccc(C2c3c(oc4ccccc4c3=O)C(=O)N2c2nnc(C)s2)cc1 (stereo not drawn) -10.8%
O=c1c2sc3ccccc3c2n(Cc2ccccc2)c(=O)n1CCc1ccccc1 -2.03%
COc1ccc(C)cc1Nc1ncnc2c1c(-c1ccccc1)cn2-c1ccc(C)cc1 -24.6%
O=c1[nH]c(=O)n([C@H]2C[C@H](O)[C@@H](CO)O2)cc1F -18.5%
COc1ccc(OC)c2sc(N3CCN(C(=O)C4COc5ccccc5O4)CC3)nc12 (stereo not drawn) 0.0158%
Cc1ccc(S(=O)(=O)C(CNC(=O)COc2ccccc2)c2ccco2)cc1 (stereo not drawn) -27.3%
CCCN(CCC)C(=O)Cn1c(=O)n(CCCCCC(=O)NCc2ccccc2Cl)c(=O)c2sccc21 -6.68%
CC(C)CCNC(=O)C(Cc1ccccc1)NS(=O)(=O)c1ccc2c(c1)c(=O)n(C)c(=O)n2C (stereo not drawn) -18%
Cc1cc(C)n(-c2nc3cc(Cl)ccc3nc2N2CCN(c3ccccc3F)CC2)n1 -28%
Cc1ccc(CNC(=O)CSc2nc3n[nH]c(C)c3c(=N)n2-c2ccccc2Cl)cc1 -2.98%
O=C(Nc1ccccc1C(=O)OCc1cc(=O)n2nc(C3CC3)sc2n1)c1cccc(F)c1 -2.21%
O=C(Nc1ccc(F)c(Cl)c1)N1CCC(CN2CCOCC2)CC1 -14.4%
Cc1nc2sccn2c(=O)c1S(=O)(=O)Nc1cc(C(F)(F)F)ccc1Cl -13.9%
Cc1ccccc1OCCCCn1nnc2sc3c(c2c1=O)CCC(C)C3 (stereo not drawn) 3.01%
CCOCCCn1c(SCC(=O)Nc2ccccc2Cl)nc2c(oc3ccccc32)c1=O -14.1%
Cc1ccc(CCNC(=O)c2ccc3c(c2)nc2n3CCOC2)cc1 21.2%
CN1C(=O)C2(SCC(=O)N2c2ccc(Cl)cc2)c2ccccc21 (stereo not drawn) -16%
COCCNC(=O)c1ccc(-c2nc(CS(=O)(=O)c3ccccc3)c(C)o2)cc1 25.7%
CCOc1ccc(NC(=O)CSc2nc3ccsc3c(=O)n2CCCCCC(=O)O)cc1 -0.25%
CCc1ccc(-n2nc3ccc(NC(=O)COc4ccc(OC)cc4)cc3n2)cc1 5.64%
CNNCc1ccc(C(=O)NC(C)C)cc1
COc1cccc(Cn2c(CNS(=O)(=O)c3ccc(Cl)s3)nc3cccnc32)c1 -19.1%
O=C(CSc1nc2c(c(=O)[nH]1)CN(Cc1ccc3c(c1)OCO3)CC2)Nc1ccccc1Cl -32.2%
Nc1ccc(C(=O)Oc2ccccc2)c(O)c1 10.5%
CC1=C(C(=O)Nc2ccccc2C)C(c2ccccn2)n2ncnc2N1 (stereo not drawn) -2.95%
CCC(=O)C1=C(c2ccc(C)cc2)N(C(=O)CC)n2c(nnc2C2CCCCC2)S1 -19.5%
CC(=O)N1CCc2cc(S(=O)(=O)NC(CC(C)C)C(=O)Nc3cc(C)cc(C)c3)ccc21 (stereo not drawn) -16.4%
CCOC(=O)c1nc(NCc2ccc(Cl)cc2)c2c(C)noc2n1 0%
Cc1c(Cl)cccc1NC(=O)CCOc1ccccc1 -11%
CCOc1ccc(Cn2c(=O)sc3ccccc32)cc1 -14.5%
Cc1cccn2c(=O)c3cc(C#N)c(=O)n(-c4nnc(SCc5ccc(Cl)cc5)s4)c3nc12 2.5%
Cc1cc(C)c2c(c1)c(C)cc1nnc(SCc3ccccc3C#N)n12 -10.2%
Cc1ccc(C)c(Cn2c(=O)c3c(nc4n3CCN4c3ccccc3)n(C)c2=O)c1 -5.08%
Cc1ccc(NC(=O)CN2C(=O)COc3ccc(S(=O)(=O)NC4CCCC4)cc32)cc1N(C)C -18.5%
CC(C)c1noc(-c2ccccc2OCC(=O)Nc2cccc([N+](=O)[O-])c2)n1 -3.46%
CCN(CC)S(=O)(=O)c1ccc2c(c1)c(=O)c(C(=O)N1CCN(c3cc(Cl)ccc3C)CC1)cn2C -1.79%
COc1cc(C2CC(=O)Oc3c2c(=O)[nH]c2ccccc32)cc(OC)c1OC (stereo not drawn) -18.8%
Cc1ccc(-c2cc3nc(-c4ccccc4)cc(C(F)(F)F)n3n2)cc1 -18.7% [at 11.5 µM]
O=C(Oc1ccccc1F)c1nc(SCc2ccc(F)cc2)ncc1Cl 9.43%
CC(=O)N1CCc2cc(Br)cc(S(=O)(=O)CCC(=O)N3CCN(c4ccccc4Cl)CC3)c21 -1.7%
COc1ccc(-c2nc3scc(CCNS(=O)(=O)c4ccc5c(c4)OCCO5)n3n2)cc1 -22%
Cc1ccc(CN(C(=O)COc2cc(C)c(Cl)c(C)c2)c2ccccn2)o1 5.12%
CCOc1ccc(-c2c(C)nn3c(C)c(C(=O)Nc4cc(C)cc(C)c4)cnc23)cc1OCC -6.3%
COc1ccccc1N1CCN(S(=O)(=O)c2c(C)nc3sccn3c2=O)CC1 -7.31%
Cc1cc(C)c2sc(N3CCN(C(=O)c4ccc(N(C)C)cc4)CC3)nc2c1 0%
CCCCCCCCCCCCCCCCCC(=O)OCC(O)CO (stereo not drawn) 2.93%
CC(C)c1nn2c(=O)cc(COC(=O)c3ccco3)nc2s1 0.48%
COc1ccc(N2C(=O)CSC23C(=O)N(CC(=O)NCCc2ccccc2)c2ccccc23)cc1 (stereo not drawn) -4.24%
O=C(CSc1nc(=O)[nH]c2c1CCCC2)NCc1ccccc1 -6.08%
COc1ccccc1C(=O)Nc1ccc(C(=O)OCc2cc(=O)n3nc(C4CC4)sc3n2)cc1 -16.7%
Cc1nn2c(C)c(C(=O)NC(C)(C)C)cnc2c1-c1ccc(F)cc1 -11.4%
Cc1ccc(N2CC(NC(=O)c3cc4ccccc4o3)CC2=O)cc1 (stereo not drawn) -15.2%
COc1ccc(NC(=O)Cn2c(=O)n(Cc3ccccc3)c(=O)c3sc4ccccc4c32)cc1 -6.13%
CCCCNC(=O)c1cc2n(n1)CCCN(Cc1ccc(C)cc1)C2=O -10.3%
CCOc1ccc(C(=O)Nc2ccc3oc(-c4ccc5ccccc5c4)nc3c2)cc1 15.6%
